The assay addresses Fc receptors of THP-1 cells (primarily CD32 (FCγRII) and CD64 (FCγRI)). Put plainly: cell-based or functional assay.

Bounds are passed on as bounds.

B1: HuPT-113D IgG4 (II) (antibody)
heavy: QVQLVQSGAEVKKPGASVKVSCKASGYTFTSYWIHWVRQAPGQGLEWIGVIDPSDSYTRYNQKFKGRVTMTVDTSTSTAYMELRSLRSDDTAVYYCTTWEVDYWGQGTTVTVSSASTKGPSVFPLAPCSRSTSESTAALGCLVKDYFPEPVTVSWNSGALTSGVHTFPAVLQSSGLYSLSSVVTVPSSSLGTKTYTCNVDHKPSNTKVDKRV[… human IgG4 Fc with S228P (EU numbers) …]
light: DIVMTQSPLSLPVTPGEPASISCRSSQSLVHSDGNTYLHWYLQKPGQSPQLLIYKVSNRFSGVPDRFSGSGSGTDFTLKISRVEAEDVGVYYCSQSTHVPWTFGGGTKVEIKRTVAAPSVFIFPPSDEQLKSGTASVVCLLNNFYPREAKVQWKVDNALQSGNSQESVTEQDSKDSTYSLSSTLTLSKADYEKHKVYACEVTHQGLSSPVTKSFNRGEC
In turn, B1 showed an EC50 of cytokine induction in THP-1 cells, fold over HuPT-113D IgG1 (II) (times higher than the IgG1) of under 30.

The record behind these values is patent US20200362022A1.
